Reference: PubChem BioAssay AID1468 (National Center for Advancing Translational Sciences (NCATS), 2008)
Out of some 280,000 compounds screened, about 1,100 (0.39%) were called active. Inconclusive means that the source gave no clear call. Such entries were picked first, then a sample of the others. Calls come from the whole dose curve; as a rule, active = well fitted inhibition curve with a large enough effect; inconclusive = small, poorly fitted or top-dose-only effect, or effect the other way; inactive = flat fitted curve, though single readings scatter. Potencies of inconclusive entries are doubtful fits and often do not repeat.

Target: Microtubule-associated protein tau (Homo sapiens) (UniProt P10636)
Test: qHTS for Inhibitors of Tau Fibril Formation, Fluorescence Polarization; note: nearly all actives have a fitted effect of over 55% in size
Settings: K18 P301L tau heparin fibrillization, Alexa594 FP, 6 h; series mostly up to 57.7 µM
Summary of the method: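 FP of Alexa 594-tau after heparin (20 uM) induction. Substrate: human K18 P301L, 15 uM unlabeled, 0.24 uM labeled. Buffer 100 mM sodium acetate pH 7. 6 hr, 37 C.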
% is set by controls: 0 for no effect and ±100 for the full control effect; potency is the fitted concentration of half-maximal effect; tags give direction and shape of the fitted curve.

UniProt P10636, sequence (P10636 whole entry, looked up): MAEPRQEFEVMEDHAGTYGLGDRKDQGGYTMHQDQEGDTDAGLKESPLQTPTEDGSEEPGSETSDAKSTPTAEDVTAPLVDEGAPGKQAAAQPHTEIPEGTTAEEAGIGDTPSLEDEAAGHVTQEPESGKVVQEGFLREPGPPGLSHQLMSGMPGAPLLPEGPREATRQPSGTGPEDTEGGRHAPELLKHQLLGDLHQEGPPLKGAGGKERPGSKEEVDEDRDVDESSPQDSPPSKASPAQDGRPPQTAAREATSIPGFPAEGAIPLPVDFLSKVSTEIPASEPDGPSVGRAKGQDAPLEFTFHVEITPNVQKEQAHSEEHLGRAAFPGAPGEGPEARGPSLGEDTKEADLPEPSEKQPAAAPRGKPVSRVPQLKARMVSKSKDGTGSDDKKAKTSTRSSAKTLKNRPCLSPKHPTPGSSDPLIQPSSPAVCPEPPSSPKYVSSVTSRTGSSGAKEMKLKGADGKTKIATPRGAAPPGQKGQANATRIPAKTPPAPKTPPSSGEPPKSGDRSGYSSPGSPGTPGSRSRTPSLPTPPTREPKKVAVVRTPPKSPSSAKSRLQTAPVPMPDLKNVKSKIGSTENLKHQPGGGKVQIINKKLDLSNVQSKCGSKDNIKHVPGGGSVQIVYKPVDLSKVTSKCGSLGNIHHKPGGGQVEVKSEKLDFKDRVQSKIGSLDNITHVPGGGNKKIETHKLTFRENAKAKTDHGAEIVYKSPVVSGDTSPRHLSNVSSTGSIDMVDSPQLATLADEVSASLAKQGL

activity, negative = inhibition, inactive:
Fc1ccccc1CCNc1c2c(nc3ncnn13)CCCC2 -5.63% [at 2.34 µM]

Potency, inactive:
COc1ccc(NC(=O)C2CCC(=O)N2S(=O)(=O)c2ccc(C)cc2)c(OC)c1 (stereo unspecified), Cc1ccc(C)c2[nH]c(=O)c(CN(CC3CCCO3)S(=O)(=O)c3ccc4c(c3)OCCO4)cc12 (stereo unspecified), O=[N+]([O-])c1ccc(C2NS(=O)(=O)N=C3CCCCCN32)cc1 (stereo unspecified), Cc1cc(O)c(/C=N/Nc2ccccc2Cl)c(=O)o1, S=P(c1ccc(N2CCOCC2)cc1N1CCOCC1)(N1CCOCC1)N1CCOCC1, O=C(CSc1nc(O)cc(=O)[nH]1)C1CC1, O=C(Cn1ccc2ccccc2c1=O)NCCC(=O)NC1CCN(Cc2ccccc2)CC1, CCOC(=O)C1=C(C)NC(=S)N(C(C)=O)C1c1ccccc1 (stereo unspecified), Cc1ccc2sc(N(CCCN(C)C)C(=O)c3nc4ccccc4s3)nc2c1C, Cc1cc(C)c(NC(=S)N(C)C)cc1C, O=C(c1cnc(N2CCCCC2)c2ccccc12)N1CCN(c2ccc(F)cc2)CC1, NCC(=O)Nc1ccc(Cl)cc1C(=O)c1ccc[nH]1, CSc1nc(C)cc(Nc2cccc(C(=O)O)c2)n1, CCN(CC(=O)NCc1cccs1)c1ccc(S(=O)(=O)N2CCCC2)cn1, N#CC1=C(N)NC(SCc2ccccc2)=C(C#N)C12CCCCC2, COc1ccc(C(=O)Oc2ccc(F)cc2C(=O)/C=C/c2ccc(OC)c(OC)c2)cc1, O=C(CCCCCn1c(=O)[nH]c2ccsc2c1=O)NCc1cccs1, Cc1cc(CNC(=O)c2ccc3c(c2)OCO3)c2ccccc2n1

Potency, active:
COC(=O)c1cc(NC(=S)Nc2cc(Cl)cc(Cl)c2)cc(C(=O)OC)c1 31.6 µM

Potency, inconclusive:
COc1ccc(N(C(=O)c2cccnc2)S(=O)(=O)c2cccc([N+](=O)[O-])c2)cc1 44.7 µM [activator, single point], CN1CCc2c(sc(N)c2C(N)=O)C1 22.4 µM [inhibitor, partial curve, poor fit], O=[N+]([O-])c1ccc(OCCN2CCNCC2)cc1 3.98 µM [inhibitor, full curve, poor fit], O=S(=O)(c1ccc(Br)cc1)N1CCn2cccc2C1c1ccc(Br)cc1 (stereo unspecified) 28.2 µM [inhibitor, single point], COc1cc(/C=C2\SC(N)=NC2=O)ccc1OCC(=O)Nc1ccc(C)cc1 17.8 µM [inhibitor, single point], Cc1cc(C)c(C)c(S(=O)(=O)N2CCN(c3ccc(O)cc3)CC2)c1C 39.8 µM [activator, single point], COc1ccc(Nc2nc(NC(C)(C)C)nc(N3CCCC3)n2)c(OC)c1 3.16 µM [activator, full curve], Cc1nc2c(ccc3nc(NC(=O)c4ccc5c(c4)OCCO5)sc32)s1 14.1 µM [inhibitor, single point], CCc1cc[n+](C2=C([O-])c3ccccc3C(=O)/C2=N\S(=O)(=O)c2cccs2)cc1 39.8 µM [inhibitor, single point], CSc1cccc(NC(=O)N2CCN(S(=O)(=O)c3ccc4c(ccn4C)c3)CC2)c1 39.8 µM [inhibitor, single point], COC(=O)c1sc2nc(SCc3ccccc3C#N)n(N)c(=O)c2c1C 11.2 µM [inhibitor, partial curve], Cc1cc(N)n2ncc(-c3ccc(F)cc3)c2n1 11.2 µM [activator, partial curve, poor fit], O=S(=O)(NCC1CCCO1)c1ccc(S(=O)(=O)N(Cc2ccc(F)cc2)Cc2ccccn2)cc1 (stereo unspecified) 28.2 µM [activator, single point], COc1ccccc1-c1cc(C(F)(F)F)nc(NCc2cccs2)n1 31.6 µM [inhibitor, single point], O=C1N(Cc2ccc3c(c2)OCO3)c2ccccc2C1(O)c1c[nH]c2ccccc12 (stereo unspecified) 28.2 µM [inhibitor, partial curve], O=C(COc1cccc(OC(F)F)c1)Nc1ccc(SC(F)F)cc1 25.1 µM [inhibitor, single point], CC1CCc2nc(NC(=O)Cc3ccc(Cl)cc3)sc2C1 (stereo unspecified) 11.2 µM [inhibitor, partial curve], Cc1nc(NC(=O)/C=C/c2ccccc2)n[nH]1 14.1 µM [inhibitor, partial curve], COc1cccc(C(=O)Nc2ccc3nc(SCC(=O)N4CCc5ccccc54)sc3c2)c1 20 µM [inhibitor, partial curve], COCc1cc(/C=N\NC(=O)COc2ccc(Cl)cc2)ccc1OC 44.7 µM [inhibitor, single point], Cc1ccc(-c2nc3scc(CCNS(=O)(=O)c4c(C)noc4C)n3n2)cc1 3.16 µM [inhibitor, partial curve], CC(=O)c1c(C)[nH]c(C(=O)CSc2nc3ccccc3n2C)c1C 20 µM [inhibitor, partial curve, poor fit], Cc1ccn2c(-c3csc(NCc4ccccc4)n3)c(C)nc2c1 14.1 µM [inhibitor, partial curve], COc1ccc(C2=NN(c3ccccc3)C(=O)/C2=C\c2ccc(O)c(OC)c2)cc1 1.58 µM [inhibitor, partial curve], Cc1ccc(-c2csc(NC(=O)CSc3nnc4c(n3)[nH]c3ccccc34)n2)cc1 8.91 µM [inhibitor, partial curve], CCNC(=S)N/N=C/c1ccc(OCC(=O)Nc2ccc(C)cc2)cc1 20 µM [inhibitor, partial curve, poor fit]
